Laboratory results published in PubChem BioAssay AID624417 (National Center for Advancing Translational Sciences (NCATS), 2012).
Out of some 410,000 compounds screened, about 6,400 (1.6%) were called active. The inconclusive results got no clear call from the source; some entries with a clear call stand among them for comparison. Calls follow the shape of the dose curve; as a rule, active = well fitted inhibition curve with a large enough effect; inconclusive = small, poorly fitted or top-dose-only effect; inactive = no such curve, though single readings can be large or run the other way. No potency is given beside an inconclusive call; the fits are too rough.

biological target: Glucagon-like peptide 1 receptor (Homo sapiens) (UniProt P43220); assay: qHTS of GLP-1 Receptor Inverse Agonists (Inhibition Mode); conditions: HEK293 GLP-1R CRE-luciferase, luminescence, 24 h, GLP-1R form is constitutively active; activity change, negative = inhibition: at 38.3 µM (top of the series) unless noted; also: nearly all actives have a fitted effect of over 55% in size
In short: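 qHTS in 1536-well format: reporter HEK293 cells expressing constitutive GLP-1R activity in DMEM + 10% Nu serum, 24 hr with compounds at 37 deg C, luminescence read after 12 min with detection reagent.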
% is scaled to controls: 0 for no effect and ±100 for the full control effect; potency is read from the fitted curve at half-maximal effect; tags tell the direction and shape of the fitted curve.

Chain of UniProt P43220 (P43220 whole entry, looked up): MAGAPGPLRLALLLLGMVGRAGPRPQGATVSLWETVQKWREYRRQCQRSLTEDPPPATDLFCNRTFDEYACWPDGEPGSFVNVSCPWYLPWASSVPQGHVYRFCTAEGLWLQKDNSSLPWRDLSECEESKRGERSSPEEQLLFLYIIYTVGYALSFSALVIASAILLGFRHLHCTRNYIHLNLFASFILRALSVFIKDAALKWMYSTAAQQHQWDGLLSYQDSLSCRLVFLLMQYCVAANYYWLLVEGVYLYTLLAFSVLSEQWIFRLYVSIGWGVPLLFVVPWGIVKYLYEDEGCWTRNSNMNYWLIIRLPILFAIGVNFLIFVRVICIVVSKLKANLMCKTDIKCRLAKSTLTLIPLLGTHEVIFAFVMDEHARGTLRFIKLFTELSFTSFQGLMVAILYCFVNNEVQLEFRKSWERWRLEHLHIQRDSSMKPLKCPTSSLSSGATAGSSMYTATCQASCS

Row | Compound | activity change, negative = inhibition | Potency
1 | COc1cn(CC(=O)Nc2cc(C)ccc2C)c(CN2CCCCC2)cc1=O | inactive: 3.39% | –
2 | CC(C)CCN(C(=O)c1csnn1)C(C(=O)NC1CCCCC1)c1ccc(F)cc1 (centres undefined) | – | active: 10 µM
3 | Cc1c(Cl)c(C(=O)NC2C3CC4CC(C3)CC2C4)nn1C (centres undefined) | – | inconclusive [inhibitor, partial curve, poor fit]
4 | CC(C)CC(c1nnnn1Cc1ccco1)N1CCN(C2CCCC2)CC1 (centres undefined) | inactive: 12.3% | –
5 | O=c1c2ccccc2nc(SCc2nnc(-c3ccccc3)o2)n1-c1ccccc1 | inactive: 7.31% | –
6 | CC(C)C[C@@H](COCc1ccc(Cl)cc1)N1CCN(C(=O)c2ccc(C(F)(F)F)cc2)CCC1=O | – | inconclusive [inhibitor, single point]
7 | CCOC(=O)c1cccc(NC(=O)N2CCC(CN3CCCCCC3)CC2)c1 | inactive: 14.4% | –
8 | CCN(CC)S(=O)(=O)c1ccc(N2CCOCC2)c(NC(=O)CCC2CCCCC2)c1 | – | inconclusive [inhibitor, single point]
9 | O=C(NC(=S)N1CCCc2ccccc21)c1ccco1 | – | inconclusive [inhibitor, partial curve, poor fit]
10 | CCc1nc2c(OCc3cccc(OC)c3)cccn2c1N(C)C(=O)c1ccc(OC)cc1 | inactive: 5.68% | –
11 | O=C1CN(c2ccc(Br)cc2)C(=O)N1CC(=O)N1CCCc2ccccc21 | – | inconclusive [inhibitor, partial curve]
12 | COc1cccc(C(C)(O)c2nc(-c3cccs3)cs2)c1 (centres undefined) | – | inconclusive [inhibitor, partial curve, poor fit]
13 | CCOc1ccc2c(c1)C(C)=CC(C)(C)N2S(=O)(=O)c1ccc(NC(C)=O)cc1 | – | inconclusive [inhibitor, full curve, poor fit]
14 | Cc1c(-c2ccc(OCc3ccccc3)cc2)nc2ccccc2c1C(=O)O | inactive: 9.11% | –
15 | S=C(NCc1ccco1)N1CCN(c2nc(-c3ccc(Cl)cc3)cs2)CC1 | – | inconclusive [inhibitor, single point]
16 | c1ccc(Nc2nc(N3CCCCC3)nc(N3CCCCC3)n2)cc1 | – | active: 10 µM
17 | CCOC(=O)c1[nH]c2ccc(OC)cc2c1NS(=O)(=O)c1ccc(Cl)s1 | – | inconclusive [inhibitor, single point]
18 | CN(CCO)CC(O)CN(c1ccccc1)c1ccccc1 (centres undefined) | – | inconclusive [inhibitor, single point]
19 | Cc1cccc(N(C)C(=S)Oc2ccc3ccccc3c2)c1 | – | inconclusive [inhibitor, single point]
20 | O=S(=O)(c1ccccc1)c1nc(-c2ccc(F)cc2)oc1N1CCCCCC1 | – | inconclusive [inhibitor, single point]
21 | CCO[C@@H]1OC(C(=O)N2CCCCCCC2)=C[C@H](c2ccc(C(F)(F)F)cc2)[C@H]1CCCO | – | active: 10 µM
22 | O=C(COc1cccc(F)c1)Nc1nc(-c2ccccn2)cs1 | – | inconclusive [inhibitor, partial curve, poor fit]
23 | COc1ccc(-n2nc(C(=O)NCC(=O)Nc3cccc(Cl)c3)c3ccccc3c2=O)cc1OC | – | inconclusive [inhibitor, partial curve, poor fit]

Row | Compound | activity change, negative = inhibition | Potency
24 | CC1CCc2c(C(=O)Nc3nccs3)csc2C1 (centres undefined) | – | inconclusive [inhibitor, single point]
25 | CC(=Nc1ccccc1)C1=C(O)C(Cc2ccc(O)cc2)NC1=O (centres undefined) | – | inconclusive [inhibitor, full curve, poor fit]
26 | CCC1CCCCN1C(=S)NC1CCCCC1 (centres undefined) | inactive: 0.803% | –
27 | O=S(=O)(Nc1cccc(S(=O)(=O)N2CCCCCC2)c1)c1ccc(F)cc1F | – | inconclusive [inhibitor, partial curve, poor fit]
28 | CCOc1ccc(C(=O)c2cn(Cc3ccc(F)cc3)c3ccc(F)cc3c2=O)cc1 | – | inconclusive [inhibitor, single point]
29 | COc1ccc2cc(-c3[nH]ncc3CNCCn3nc(C)cc3C)ccc2c1 | – | inconclusive [inhibitor, partial curve, poor fit]
30 | O=C(Nc1cccs1)Nc1c(F)c(F)c(F)c(F)c1F | – | inconclusive [inhibitor, single point]
31 | Cc1ccc(NC(=O)NCc2ccc3[nH]c(C)cc3c2)cc1 | – | inconclusive [inhibitor, full curve]
32 | Cc1ccc(CN(Cc2ccco2)C(=O)c2oc3ccc(C)cc3c2C)cc1 | – | inconclusive [inhibitor, single point]
33 | COc1ccc(OC)c(C(=O)Cn2nnc3ccccc3c2=O)c1 | inactive: 0% | –
34 | O=S(=O)(Nc1ccc(-c2ccc3nncn3n2)cc1)c1cc(F)ccc1F | inactive: 106% | –
35 | CCCCN1C(=O)C(O)(c2c(C)[nH]c3ccccc23)c2ccccc21 (centres undefined) | – | inconclusive [inhibitor, partial curve, poor fit]
36 | CCCOc1ccccc1C1Oc2nc(SC)nnc2-c2ccccc2N1C(C)=O (centres undefined) | inactive: 9.46% | –
37 | O=C1N=C(N2C=CC(=C3C=CNC=C3)C=C2)/C(=C/N=NC(=O)c2ccccc2O)S1 | inactive: 3.82% | –
38 | Cc1csc(Nc2ccccc2C(F)(F)F)n1 | – | inconclusive [inhibitor, single point]
39 | O=C(c1cc(COc2ccc(F)cc2Cl)on1)N1CCN(c2cnccn2)CC1 | – | inconclusive [inhibitor, single point]
40 | N#CC1=C(N)C2=CCCC[C@H]2[C@H](c2ccccc2)C1(C#N)C#N | – | active: 4.47 µM
41 | COc1ccc(N(C)S(=O)(=O)c2cccc(C(=O)Nc3cccc(C(=O)NC4CC4)c3)c2)cc1 | – | inconclusive [inhibitor, single point]
42 | CCCCN(C)C(=O)c1cc2cc3cc(OC)ccc3nc2o1 | – | inconclusive [inhibitor, single point]
43 | Cc1csc2ncnc(N3CCN(C(=O)Nc4ccc(OC(F)(F)F)cc4)CC3)c12 | – | inconclusive [inhibitor, partial curve, poor fit]
44 | Cc1ccc(C(=O)N(CC(=O)NC2CCCCC2)c2ccccc2C)s1 | – | inconclusive [inhibitor, partial curve, poor fit]
45 | O=C(/C=C/c1ccco1)N(Cc1cccc(F)c1)C1CCS(=O)(=O)C1 (centres undefined) | inactive: -20.2% | –
46 | COc1ccccc1N1CCN(C(=O)COc2cccc(C)c2C)CC1 | – | active: 7.08 µM

Row | Compound | activity change, negative = inhibition | Potency
47 | COc1ccccc1N(C)S(=O)(=O)c1ccc(C(=O)Nc2ncc(C)s2)cc1 | – | inconclusive [inhibitor, full curve]
48 | OCCNCc1cccc(OCc2ccccc2Cl)c1 | – | inconclusive [inhibitor, partial curve, poor fit]
49 | Cc1ccc(C)c(Cn2c3ccccc3c3cnn(CC(=O)NC(C)c4ccccc4)c(=O)c32)c1 (centres undefined) | inactive: -19.2% | –
50 | O=C(C(=Cc1ccccc1)c1ccccc1)c1ccccc1 | – | inconclusive [inhibitor, single point]
51 | CC(C)CC(=O)NC(=S)Nc1ccc(S(=O)(=O)NC(C)(C)C)cc1 | – | inconclusive [inhibitor, single point]
52 | Cc1cc(C)c(S(C)(=O)=O)c(Oc2ccc(C(C)(C)C)cc2)n1 | – | active: 11.2 µM
53 | CSc1ccc(-c2nc(CN3CCCCC3c3cccnc3)c(C)o2)cc1 (centres undefined) | – | inconclusive [inhibitor, partial curve, poor fit]
54 | CC1=CC(C)(C)Nc2ccc(OC(=O)CN3C(=O)c4ccccc4C3=O)cc21 | – | inconclusive [inhibitor, single point]
55 | Cc1ccc(-c2nnnn2-c2ccc(C)cc2)cc1 | inactive: 4% | –
56 | COc1ccccc1CNC(=O)c1ccc(NS(C)(=O)=O)cc1 | inactive: 1.13% | –
57 | CC(C)(C)c1ccc(CN2N=C(/C=C/c3ccccc3)CCC2=O)cc1 | – | inconclusive [inhibitor, single point]
58 | CS(=O)(=O)N1CCc2cc(C(=O)Nc3cccc(F)c3)ccc21 | inactive: -0.578% | –
59 | O=C(COC(=O)c1n[nH]c2ccccc12)NC(=O)NCc1ccco1 | inactive: 5.34% | –
60 | COc1ccc(CCc2ccnc3ccccc23)cc1 | – | inconclusive [inhibitor, partial curve]
61 | O=C(NCc1ccco1)C1CC(c2cc(C(F)(F)F)cc(C(F)(F)F)c2)=NO1 (centres undefined) | – | inconclusive [inhibitor, full curve, poor fit]
62 | CCOc1ccc(CN2CCNC(=O)C2CC(=O)NCCN2CCOC2=O)cc1 (centres undefined) | inactive: 5.73% | –
63 | CCc1ccc(C2NC(=O)c3[nH]nc(-c4cccc(OC)c4)c32)cc1 (centres undefined) | inactive: 11.4% | –
64 | CC(C)CCN(C(=O)c1csnn1)C(C(=O)NC1CCCC1)c1ccc(F)cc1 (centres undefined) | – | inconclusive [inhibitor, single point]
65 | O=C(c1ccc(F)cc1)C1CCN(Cc2cn[nH]c2-c2ccc(F)cc2)CC1 | – | inconclusive [inhibitor, partial curve, poor fit]
66 | COc1cccc2sc(N3CCN(C(=O)CCS(=O)(=O)c4ccc(F)cc4)CC3)nc12 | – | inconclusive [inhibitor, single point]
67 | CCCN(CCC)S(=O)(=O)c1ccc(NC(=O)c2cc(C(=O)OC)cc([N+](=O)[O-])c2)cc1 | – | inconclusive [inhibitor, full curve, poor fit]
68 | OC1CCN(Cc2cccc(Oc3ccccc3)c2)CC1 | – | inconclusive [inhibitor, partial curve, poor fit]
69 | Cc1nn(C)c(C)c1CN(Cc1nc(CCC(C)C)no1)C(C)C | – | inconclusive [inhibitor, partial curve, poor fit]
